Data: the supplement of paper PMC4996465
Viability of KB3-1 and Nalm-6 cells after 48 h of drug alone (CellTiter-Glo), 11 doses over about 4.5 log units. % of DMSO wells, lower = more cell loss; AC50 from the fitted curve, lower = more potent. No active / inactive call. Nalm-6 was screened in two runs. AC50 is listed only for well-fitted inhibitory curves. KB3-1 is a HeLa-derived carcinoma line, Nalm-6 a B-cell precursor leukaemia line.

Experiments:
Nalm-6 = experiment: viability (% of DMSO control); higher = more viable cells
Procedure: (§1)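 Eleven-dose screen of the NCATS MIPE 3 library on cells without co-treatment; CellTiter-Glo after 48 h, as % of DMSO wells.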

KB3-1 = experiment: as above
Procedure: as §1

NC(=O)C1CCCc2c1[nH]c1ccc(Cl)cc21 (configuration not stated) [EX-527]
viability (Nalm-6; run: 1, 0.00078 µM): 114%
viability (Nalm-6; run: 1, 0.00234 µM): 113%
viability (Nalm-6; run: 1, 0.00702 µM): 109%
viability (Nalm-6; run: 1, 0.0211 µM): 117%
viability (Nalm-6; run: 1, 0.0632 µM): 113%
viability (Nalm-6; run: 1, 0.19 µM): 122%
viability (Nalm-6; run: 1, 0.569 µM): 117%
viability (Nalm-6; run: 1, 1.71 µM): 114%
viability (Nalm-6; run: 1, 5.12 µM): 115%
viability (Nalm-6; run: 1, 15.4 µM): 108%
viability (Nalm-6; run: 1, 46.1 µM): 90.6%
viability (Nalm-6; run: 2, 0.00078 µM): 101%
viability (Nalm-6; run: 2, 0.00234 µM): 103%
viability (Nalm-6; run: 2, 0.00702 µM): 100%
viability (Nalm-6; run: 2, 0.0211 µM): 99%
viability (Nalm-6; run: 2, 0.0632 µM): 107%
viability (Nalm-6; run: 2, 0.19 µM): 107%
viability (Nalm-6; run: 2, 0.569 µM): 104%
viability (Nalm-6; run: 2, 1.71 µM): 93.9%
viability (Nalm-6; run: 2, 5.12 µM): 94.9%
viability (Nalm-6; run: 2, 15.4 µM): 104%
viability (Nalm-6; run: 2, 46.1 µM): 95.3%
viability (KB3-1; 0.00078 µM): 108%
viability (KB3-1; 0.00234 µM): 106%
viability (KB3-1; 0.00702 µM): 104%
viability (KB3-1; 0.0211 µM): 103%
viability (KB3-1; 0.0632 µM): 109%
viability (KB3-1; 0.19 µM): 106%
viability (KB3-1; 0.569 µM): 104%
viability (KB3-1; 1.71 µM): 104%
viability (KB3-1; 5.12 µM): 105%
viability (KB3-1; 15.4 µM): 104%
viability (KB3-1; 46.1 µM): 64.6%

O=C(O)[C@@H](c1ccc(OCc2ccc3ccccc3n2)cc1)C1CCCC1 [Veliflapon]
viability (Nalm-6; run: 1, 0.00078 µM): 87.3%
viability (Nalm-6; run: 1, 0.00234 µM): 83.1%
viability (Nalm-6; run: 1, 0.00702 µM): 102%
viability (Nalm-6; run: 1, 0.0211 µM): 116%
viability (Nalm-6; run: 1, 0.0632 µM): 114%
viability (Nalm-6; run: 1, 0.19 µM): 119%
viability (Nalm-6; run: 1, 0.569 µM): 112%
viability (Nalm-6; run: 1, 1.71 µM): 127%
viability (Nalm-6; run: 1, 5.12 µM): 109%
viability (Nalm-6; run: 1, 15.4 µM): 110%
viability (Nalm-6; run: 1, 46.1 µM): 88.3%
viability (Nalm-6; run: 2, 0.00078 µM): 103%
viability (Nalm-6; run: 2, 0.00234 µM): 104%
viability (Nalm-6; run: 2, 0.00702 µM): 104%
viability (Nalm-6; run: 2, 0.0211 µM): 103%
viability (Nalm-6; run: 2, 0.0632 µM): 102%
viability (Nalm-6; run: 2, 0.19 µM): 107%
viability (Nalm-6; run: 2, 0.569 µM): 108%
viability (Nalm-6; run: 2, 1.71 µM): 115%
viability (Nalm-6; run: 2, 5.12 µM): 108%
viability (Nalm-6; run: 2, 15.4 µM): 106%
viability (Nalm-6; run: 2, 46.1 µM): 99.7%
viability (KB3-1; 0.00078 µM): 103%
viability (KB3-1; 0.00234 µM): 103%
viability (KB3-1; 0.00702 µM): 102%
viability (KB3-1; 0.0211 µM): 106%
viability (KB3-1; 0.0632 µM): 59.6%
viability (KB3-1; 0.19 µM): 102%
viability (KB3-1; 0.569 µM): 107%
viability (KB3-1; 1.71 µM): 110%
viability (KB3-1; 5.12 µM): 105%
viability (KB3-1; 15.4 µM): 105%
viability (KB3-1; 46.1 µM): 90.7%

CC(=O)SC[C@@H](C)C(=O)N1CCC[C@H]1C(=O)N[C@@H](Cc1ccccc1)C(=O)O [Alacepril]
viability (Nalm-6; run: 1, 0.00078 µM): 70.3%
viability (Nalm-6; run: 1, 0.00234 µM): 67.9%
viability (Nalm-6; run: 1, 0.00702 µM): 79.6%
viability (Nalm-6; run: 1, 0.0211 µM): 88.4%
viability (Nalm-6; run: 1, 0.0632 µM): 94.1%
viability (Nalm-6; run: 1, 0.19 µM): 92.6%
viability (Nalm-6; run: 1, 0.569 µM): 104%
viability (Nalm-6; run: 1, 1.71 µM): 109%
viability (Nalm-6; run: 1, 5.12 µM): 115%
viability (Nalm-6; run: 1, 15.4 µM): 109%
viability (Nalm-6; run: 1, 46.1 µM): 103%
viability (Nalm-6; run: 2, 0.00078 µM): 107%
viability (Nalm-6; run: 2, 0.00234 µM): 108%
viability (Nalm-6; run: 2, 0.00702 µM): 107%
viability (Nalm-6; run: 2, 0.0211 µM): 105%
viability (Nalm-6; run: 2, 0.0632 µM): 108%
viability (Nalm-6; run: 2, 0.19 µM): 104%
viability (Nalm-6; run: 2, 0.569 µM): 108%
viability (Nalm-6; run: 2, 1.71 µM): 107%
viability (Nalm-6; run: 2, 5.12 µM): 105%
viability (Nalm-6; run: 2, 15.4 µM): 102%
viability (Nalm-6; run: 2, 46.1 µM): 104%
viability (KB3-1; 0.00078 µM): 102%
viability (KB3-1; 0.00234 µM): 99.3%
viability (KB3-1; 0.00702 µM): 100%
viability (KB3-1; 0.0211 µM): 108%
viability (KB3-1; 0.0632 µM): 105%
viability (KB3-1; 0.19 µM): 99.2%
viability (KB3-1; 0.569 µM): 104%
viability (KB3-1; 1.71 µM): 99.8%
viability (KB3-1; 5.12 µM): 98.7%
viability (KB3-1; 15.4 µM): 95.4%
viability (KB3-1; 46.1 µM): 96.8%

C[C@@H]1CCN(C(=O)CC#N)C[C@@H]1N(C)c1ncnc2[nH]ccc12 [Tofacitinib]
viability (Nalm-6; run: 1, 0.00078 µM): 112%
viability (Nalm-6; run: 1, 0.00234 µM): 118%
viability (Nalm-6; run: 1, 0.00702 µM): 114%
viability (Nalm-6; run: 1, 0.0211 µM): 121%
viability (Nalm-6; run: 1, 0.0632 µM): 123%
viability (Nalm-6; run: 1, 0.19 µM): 128%
viability (Nalm-6; run: 1, 0.569 µM): 123%
viability (Nalm-6; run: 1, 1.71 µM): 118%
viability (Nalm-6; run: 1, 5.12 µM): 110%
viability (Nalm-6; run: 1, 15.4 µM): 110%
viability (Nalm-6; run: 1, 46.1 µM): 82.8%
viability (Nalm-6; run: 2, 0.00078 µM): 111%
viability (Nalm-6; run: 2, 0.00234 µM): 106%
viability (Nalm-6; run: 2, 0.00702 µM): 106%
viability (Nalm-6; run: 2, 0.0211 µM): 113%
viability (Nalm-6; run: 2, 0.0632 µM): 108%
viability (Nalm-6; run: 2, 0.19 µM): 112%
viability (Nalm-6; run: 2, 0.569 µM): 112%
viability (Nalm-6; run: 2, 1.71 µM): 107%
viability (Nalm-6; run: 2, 5.12 µM): 110%
viability (Nalm-6; run: 2, 15.4 µM): 109%
viability (Nalm-6; run: 2, 46.1 µM): 111%
viability (KB3-1; 0.00078 µM): 99.6%
viability (KB3-1; 0.00234 µM): 107%
viability (KB3-1; 0.00702 µM): 102%
viability (KB3-1; 0.0211 µM): 99.9%
viability (KB3-1; 0.0632 µM): 93.9%
viability (KB3-1; 0.19 µM): 98.9%
viability (KB3-1; 0.569 µM): 93.8%
viability (KB3-1; 1.71 µM): 94.8%
viability (KB3-1; 5.12 µM): 92.6%
viability (KB3-1; 15.4 µM): 93.3%
viability (KB3-1; 46.1 µM): 91.1%
